According to PubChem BioAssay AID463173 (ICCB-Longwood Screening Facility, Harvard Medical School, 2010):
Out of some 52,000 compounds screened, about 4,300 (8.3%) were called active. Rule as the data show it: active = survival mostly below about 52% (no sharp cut-off); inactive = mostly above about 56%. The list shows a part of the results.

test system: DeltatarO mutant; assay: growth inhibition of S. aureus wild type versus tarO mutant, primary screen, teichoic acid synthesis inhibitors, RN4220, OD600 (AID 463173); conditions: OD600, 18 h, active compounds read low, screened at 18.75 µg/mL (by protocol)

Compound | survival
Cn1cc(S(=O)(=O)N2CCCCCC2)cc1C(=O)NCc1ccccc1Cl | inactive: 112%
COc1cc(OC)cc(C(=O)N2CCC(C(=O)NC(C)C)CC2)c1 | inactive: 87%
CCOc1ccc(-n2c(-c3ccccc3)c(C)n3c4c(=O)n(C)c(=O)n(C)c4nc23)cc1 | inactive: 85%
CCn1cc(C(=O)NCc2ccc(C)cc2)c(=O)c2cc(S(=O)(=O)N3CCCCCC3)ccc21 | inactive: 82%
COc1ccccc1CNC(=O)c1ccc2nc(-c3ccccc3)c(-c3ccccc3)nc2c1 | inactive: 94%
O=C(CCc1nc2cccnc2n1Cc1cccs1)Nc1cccc(Cl)c1 | inactive: 52%
Cc1nn(C)c2c1c(C(F)(F)F)cc(=O)n2Cc1cccc(Br)c1 | inactive: 103%
CCOC(=O)c1cc(-c2ccccc2)n(CCC(=O)Nc2ccc(Cl)c(C(F)(F)F)c2)c1C | inactive: 102%
Cc1cccc(NS(=O)(=O)c2ccc(-n3cccn3)cc2)c1C | inactive: 65%
CC(C)CNc1nc(Oc2ccc(OCC(N)=O)nn2)nc(N2CCOCC2)n1 | inactive: 69%
c1ccc(-c2nonc2NCNc2nonc2-c2ccccc2)cc1 | inactive: 96%
Cc1oc(C)c2c(=O)cc(-c3ccc4c(c3)OCO4)cc(OC(=O)c3ccccc3Cl)c12 | inactive: 99%
CCOC(=O)c1c(NC(=O)CC)sc(C(=O)OC)c1C | inactive: 75%
CS(=O)(=O)N(CC(=O)O)C1CCCCC1 | inactive: 91%
CCN1C(=O)/C(=C2/Sc3ccc(OC)cc3N2C)SC1=Nc1cccc(O)c1 | inactive: 93%
Cc1c(Cl)cccc1NC(=O)Cn1c(=O)nc(-c2ccccc2)c2ccccc21 | inactive: 91%
CCCNC(=O)C1CCN(c2ncnc3c2nc2n3CCCCC2)CC1 | inactive: 76%
COc1ccc(NC(=O)c2coc(C)c2)cc1 | inactive: 82%
CCCC(=O)NCC(c1ccc2c(c1)OCO2)N1CCN(c2ccccc2)CC1 (stereo not given) | inactive: 83%
CCOC(=O)N1CCc2c(sc(NCc3ccc(OC)c(OC)c3OC)c2C(=O)Nc2ccc(OC)cc2OC)C1 | inactive: 94%
CCc1ccc(-n2c(=O)c3sc4ccccc4c3n(Cc3cccc(F)c3)c2=O)cc1 | inactive: 90%
CCc1nnc(NC(=O)c2nc(SCc3ccccc3C)ncc2Cl)s1 | inactive: 96%
CCCCCOc1ccc(/C=C/C(=O)Nc2sc(C(C)=O)c(C)c2C(=O)OCC)cc1OC | inactive: 71%

Compound | survival
COC(=O)CSc1nc(-c2ccc(F)cc2)cc(C(F)(F)F)n1 | inactive: 126%
O=C(CCn1ccc2cc(S(=O)(=O)N3CCCC3)ccc21)NCc1cccc(F)c1 | inactive: 81%
CCN(CC)Cn1c(=S)sc2ccccc21 | inactive: 75%
COc1ccc(OC)c(C2N=C(N)Nc3nc4ccccc4n32)c1 (stereo not given) | inactive: 54%
COc1cc(OC)c(C2Nc3ccccc3-c3nnc(SCc4ccccc4)nc3O2)cc1OC (stereo not given) | inactive: 54%
COc1ccc(NC(=O)Cn2c(=O)n(Cc3nc(C)no3)c(=O)c3cc4c(cc32)OCO4)cc1OC | inactive: 75%
COc1cccc(-n2cc(C(=O)NCc3ccccc3OC)c3ccccc3c2=O)c1 | inactive: 72%
COc1ccc(-c2nc(CN3CCC(C(=O)NCCCOC(C)C)CC3)c(C)o2)cc1OC | inactive: 92%
Cc1ccccc1Cn1c(=O)n(CCc2ccccc2)c(=O)c2c(C)c(C)sc21 | active: -6%
COc1cccc(OCCSc2nc3ccccc3n2CC(=O)N2CCCCC2)c1 | active: 42%
COC(=O)c1cc(S(=O)(=O)NCC2CCN(Cc3cccc(F)c3)CC2)c[nH]1 | inactive: 77%
CCc1cc2c(cc3c(=O)n(CC(=O)NCCc4ccc(OC)c(OC)c4)ncn32)s1 | inactive: 72%
Cc1cccc(-c2nn3c(=O)cc(CN4CCN(S(=O)(=O)c5ccc(Cl)cc5)CC4)nc3s2)c1 | inactive: 67%
CCC(C(=O)Nc1ccccc1C(=O)OC)n1nc(C)c2c(C)n(-c3ccc(C)cc3)nc2c1=O (stereo not given) | inactive: 93%
CCC1CCc2nc3sc(C(=O)Nc4ccc(F)c(Cl)c4)c(N)c3cc2C1 (stereo not given) | inactive: 71%
COc1ccccc1C(=O)OCc1cc(=O)n2nc(C3CC3)sc2n1 | inactive: 82%
Nc1ccc2nc(SCC(=O)O)sc2c1 | inactive: 102%
Cc1nc(-c2ccc(Cl)cc2)sc1CCNC(=O)c1ccc(C(F)(F)F)cc1 | inactive: 107%
COC(=O)CSc1nc2ccc(C(C)C)cc2cc1C#N | inactive: 82%
Cc1ccc(C)c(NC(=O)CCn2nc(C)c3c(C)n(-c4ccccc4)nc3c2=O)c1 | active: 37%
CCc1ccc(NC(=O)c2sc3nc(C)c(Cl)c(C)c3c2N)cc1 | inactive: 69%
O=C(Cn1c(-c2cccs2)cc2cc(Cl)ccc21)N1CCN(c2ccccc2)CC1 | inactive: 78%
COc1ccc(-c2cccc(NS(=O)(=O)c3cc(C)c(OC)c(C)c3C)c2)nn1 | inactive: 96%

Compound | survival
Cc1ccc(NC(=O)C2CCCN2S(=O)(=O)c2ccc3c(c2)CCCC(=O)N3)cc1C (stereo not given) | inactive: 80%
Cc1cccc(N(CC(=O)O)S(C)(=O)=O)c1 | inactive: 72%
COc1ccc(NC(=O)C(c2ccc(C)cc2)N(C)C(=O)Cc2cccs2)cc1 (stereo not given) | inactive: 57%
COc1ccccc1CNC(=O)CSc1ncc2c(n1)-c1ccc(Cl)cc1N(Cc1ccccc1)S2(=O)=O | active: 32%
Cc1c(Cl)cccc1NC(=O)C(C)n1c(=O)cc(-c2ccccc2)c2c(C)nn(C)c21 (stereo not given) | inactive: 86%
COc1ccccc1Nc1nc(Nc2cccc(C(F)(F)F)c2)nc(N2CCOCC2)n1 | inactive: 73%
CC(C)(C)c1ccc(OCCn2ccccc2=O)cc1 | inactive: 86%
Cc1cccc(-n2c(=O)c3c(c4cc(C)ccc4n3C)n(CC(=O)NCCC3=CCCCC3)c2=O)c1 | inactive: 67%
COc1ccc(-c2noc(-c3cccnc3NCc3ccco3)n2)cc1 | inactive: 98%
COc1ccc(-c2onc(C)c2C)cc1S(=O)(=O)NCC1CCN(Cc2ccccc2F)CC1 | inactive: 96%
CCOC(=O)CSc1nc2ccccc2c(=O)n1CCc1ccc(OC)c(OC)c1 | inactive: 102%
CC(=O)NC(NC(C)=O)c1ccc2c(c1)OCO2 | inactive: 80%
CCC1CN(C(=O)N2CCC(C(=O)NCCN(CC)CC)CC2)c2ccccc2O1 (stereo not given) | inactive: 78%
Cc1ccc(Oc2c(C(F)(F)F)oc3cc(OCC(=O)NC4CCCCC4)ccc3c2=O)cc1 | active: 46%
CC(=O)NC1=NN(C(C)=O)C2(S1)C(=O)Nc1ccccc12 (stereo not given) | inactive: 90%
CCc1cccc(C)c1NC(=O)CSc1nc(C)cc(C)c1C(=O)Nc1ccccc1 | inactive: 44%
O=C(CC(c1cccs1)N1Cc2ccccc2C1=O)Nc1ccc(F)c(Cl)c1 (stereo not given) | inactive: 83%
C=CCC(CC=C)(CNC(=O)C(=O)Nc1cccc(C(F)(F)F)c1)c1ccccc1 | inactive: 112%
Cc1nnc(NC(=O)C2CCCN(c3ncccn3)C2)s1 (stereo not given) | inactive: 107%
COc1ccc(Cl)cc1NC(=O)CN(C)S(=O)(=O)c1ccc2c(c1)CCCN2C(C)=O | inactive: 78%
CC(CNC(=O)Cn1ccc2cc(S(=O)(=O)N3CCCCCC3)ccc21)c1ccccc1 (stereo not given) | inactive: 109%
CCOC(=O)c1ccc(N2CCN(c3cccc(Cl)c3)CC2)c(NC(=O)Nc2ccc(OC)cc2OC)c1 | inactive: 77%
O=C(Nc1ccc2nc(SCCOc3ccccc3Cl)sc2c1)c1cccs1 | inactive: 49%

Compound | survival
COC(=O)c1sccc1S(=O)(=O)N1CCN(c2ccccc2OC)CC1 | inactive: 74%
CCC(=O)/C=C1/Sc2ccc(C)cc2N1CC | inactive: 97%
COc1ccc(/C=C2\SC(=S)N(CC(=O)NCCO)C2=O)cc1 | inactive: 78%
COc1ccc(N2CC(C(=O)Nc3ccc(NC(C)=O)cc3)CC2=O)cc1 (stereo not given) | inactive: 79%
CC(C)c1ccc(S(=O)(=O)c2cnc(SCC(=O)Nc3cccc(C(F)(F)F)c3)nc2N)cc1 | inactive: 85%
CCOC(=O)c1cc(-c2ccc(OC)c(S(=O)(=O)Nc3ccc(OC)cc3OC)c2)on1 | inactive: 120%
Cc1ccc(CNC(=O)c2nnc(Cc3cccc(F)c3)o2)cc1 | inactive: 86%
CC(C)N(Cc1ccccc1)c1ncnc2c1nnn2C | inactive: 69%
CCOc1ccc(C(c2c(O)cc(C)n(CCOC)c2=O)N2CCN(c3ccccc3F)CC2)cc1 (stereo not given) | inactive: 87%
CCN1C(=O)c2ccccc2S(=O)c2ccc(C(=O)NCc3ccc(F)cc3)cc21 (stereo not given) | inactive: 65%
Cc1ccc(C)c(S(=O)(=O)c2nnn3c2nc(N2CCOCC2)c2sccc23)c1 | inactive: 108%
CC(CN1CCOCC1)OC(=O)C(C)(c1ccccc1)c1ccccc1 (stereo not given) | inactive: 69%
CCN(CC)S(=O)(=O)c1cc(-c2nnc(Nc3ccc(OC)c(C(N)=O)c3)c3ccccc23)ccc1C | inactive: 55%
Cc1ccc(Nc2c(-c3cc(Br)ccc3F)nc3cc(C)ccn23)cc1 | active: 32%
CN(CC(=O)Nc1ccc(Cl)cc1)C1CCCCC1 | inactive: 110%
Cc1ccc(NC(=O)c2cccc(N3CCCS3(=O)=O)c2)cc1 | inactive: 78%
COc1ccccc1NC(=O)Cn1c(=O)n(-c2ccc(C)cc2)c(=O)c2ccc(C(=O)NCc3ccco3)cc21 | inactive: 79%
Cc1ccc(S(=O)(=O)Cn2nnnc2CN2CCC(Cc3ccccc3)CC2)cc1 | inactive: 100%
CCOc1ccc(NC(=O)N2CCC(CN3CCc4ccccc4C3)CC2)cc1 | active: -1%
COc1ccccc1N1CCN(c2ccc(=O)n(CC(=O)Nc3ccc(F)c(F)c3)n2)CC1 | inactive: 80%
O=C(NCc1cccnc1)c1nn(-c2ccccc2F)nc1CO | inactive: 94%
